{
  "source": "the RNAGym collection of RNA variant scans (doi:10.1073/pnas.2313332121)",
  "parents": {"B1": {"name": "TPR 5TU (parent)", "chain": "GGAUCUUCUCGAUCUAACAAAAAAGACAAAUCUGCCACAAAGCUUGAGAGCAUCUUCGGAUGCAGAGGCGGCAGCCUUCGGUGGCGCGAUAGCGCCAACGUUCUCAACUAUGACACGCAAAACGCGUGCUCCGUUGAAUGGAGUUUAUCAUG"}},
  "note": "Variants at the background level are over-represented here.",
  "data": [
    {"variants_of": "B1", "experiment": "polymerase ribozyme fitness, log enrichment relative to wild type (log ratio); higher = more active; in vitro selection for triplet polymerase activity", "outline": "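PCR was used to build mutant libraries for each subunit of a heterodimeric triplet polymerase ribozyme, which were then transcribed. A single in vitro selection round, in triplicate, used a frozen incubation at −7 °C and recovered extended constructs by gel excision, streptavidin beads and RT-PCR. Fitness is the logarithm of genotype enrichment relative to wild-type enrichment, averaged over replicates with inverse-variance weights. The logarithm is base 2, and after Illumina sequencing only genotypes with ≥10 input reads and ≥1 read per output were kept.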", "values": [
      {"variant": "GGCUCUUCUCGUUCUAACAAAAAAGACAAAUCUGCCACAAAGCUUGAGAGCAUCUACGGAUGCAGAGGCGGCAGCCUUCGGUGGCGCGAUAGAGCCAUCGUUCUCAGCUAUGACACGCAAAACGCGUGUUCCGUUGAAUGGAGUUUAUCAUG", "polymerase ribozyme fitness (log ratio)": "≤ -4.2"},
      {"variant": "GGCUCUUCUCGAUCUGACAAAAAUGACAAAUCUGCCACACAGCUUGAGAGCAUCUUCGGAUGCAGAGGCGGCAGCCUUCGGUGGCGCGAUGGCGCCAACGUUCUCAACUAUGACACGCAAAACGCGUGCUCCGUUGAAUGGAGUUUAUCAUG", "polymerase ribozyme fitness (log ratio)": "≤ -4.2"},
      {"variant": "GGCUCUUCUCGAUCUAUCAAAAAAGACAAAUCUGCCACAAAGCUUGAGAUCAUCUUCGGAUGCAGAGGCGGCAGCCUUCGGUGGUGCGAUAGCGCCAACGUUCUCAAUUAUGACACGCAAAACGCGUGCUCCGUUGAAUGGAGUUUAUCAUG", "polymerase ribozyme fitness (log ratio)": "≤ -4.2"},
      {"variant": "GGCUCUUCUCGAUCUAACGAAAAAGACAAAUCUGCCACAAAGCUUGAGGGCAUCUUCGGAUGCAGAGGCGGCAGCCUUCGGUGGCGCGAUAGUGCCAACGUUCUCAACUAUGACACGCAAAACGCAUGCUCCGUUGAAUGGAGUUUAUCAUG", "polymerase ribozyme fitness (log ratio)": "≤ -4.2"},
      {"variant": "GGCUCUUCUCGAUCUAACAUAAAAGACAAAUCUGCCACAAAGCUUGAGAGCAUCAUAGGAUGCAGAGGCGGCAGCCAUCGGGUGCGAGAUAGCGCCAACGUUCUCAACUAUGACACGCAAUACGCGUGCUCCCUUGAAUGGAGUUUAUCAUG", "polymerase ribozyme fitness (log ratio)": "≤ -4.2"},
      {"variant": "GGCUCUUCUCGAUCUAACAACAAAGACCAAUCUGCCACAAAGCUUGAGAGCAUCUUCGGAUGCAGAGGCGGCAGCCUUCGGUGGCGCGAUAGCGCCAACGUUCUCAACUAUGACACGCAAAACGAGUGCUCCGUUGAAUGGAGUUUAUCAUG", "polymerase ribozyme fitness (log ratio)": "≤ -4.2"},
      {"variant": "GGCUCUUCUCGAUCUAACAAACAAGACAAAUCUGCCACAAAGCUUGAGAUCAUCUUCGGAUGCAGAGGCGGCAGCCUUCGGUGGGGCGAUAGCGCCAACGUUCUCAACUAUGACACGCAAUACGGUUGCUCCGUUGAAUGGAGUUUCUCAUG", "polymerase ribozyme fitness (log ratio)": "≤ -4.2"},
      {"variant": "GGCUCUUCUCGAUCUAACAAAUAAGACAAAUCUGCCACUAAGCUUGAGCGCAUCUUCGGAGGCAGAGGCGGCAGCCUUCGGUGGCGCCAUAGCGCCAACGUUCUCAACUAUGACACGCAAAACGCGUGCUCCGUUGAAUGGAGUUUAUCAUG", "polymerase ribozyme fitness (log ratio)": "≤ -4.2"},
      {"variant": "GGCUCUUCUCGAUCUAACAAAUAAGACAAAUCUGCCACAAAGCUUGAGAGCAUCUUCGGAUGCAGAGGCGGCAGCCUUCGGUGGGGCGAUAGCGCCAACGUUCUCAACUAUGACACGCAAAACGCGUGCUCCGUUGAAUGGAGUUUAUCAUG", "polymerase ribozyme fitness (log ratio)": -2.18},
      {"variant": "GGCUCUUCUCGAUCUAACAAAAAUGACAAAUCUGCCACAAAGCUUGAGAGCAUCUUCGGAUGCAGAGGCUGCAGCCUUCGGUGGCGCCAUAGCACCAACGUUCUGAACUAUGACACGCAAAACGCGUGCUCCGUUGAAUGGAGUCUAUCAUG", "polymerase ribozyme fitness (log ratio)": "≤ -4.2"},
      {"variant": "GGCUCUUCUCGAUCUAACAAAAAAGACUAAUCUGCCACAAAGCUUGAGAGCCUCUUCGGAUGCAGAGUCGGCAGCCUUCGGUGGCGCGAUGGCGCCAACGUUCUCAACUAUGAAACGCAAAACGCGUGCUCCGUUGAAUGGAGUUUAUCAUG", "polymerase ribozyme fitness (log ratio)": "≤ -4.2"},
      {"variant": "GGCUCUUCUCGAUCUAACAAAAAAGACAAAUCUGCCCCAAAGCUUGAGAGCAUCUUCGGAUGCAGAGGCGGGAGCCUUCGGUGGCGCGAUAGCGGCAACGUUCUCAACUACGACACGCAAAACGCGUGCUCCGUUGAAUGGAGUUUAUCAUG", "polymerase ribozyme fitness (log ratio)": "≤ -4.2"},
      {"variant": "GGCUCUUCUCGAUCUAACAAAAAAGACAAAUCUGCCACAAGGCUUGAGAGCAUCUUCGGAUGCAGAGGCGGCAGCCUUCGGUGGGGCGAUAGCGCCAACGUUCUCAACUAUGACACGCAAAACGCGUGCUCCGUUGAAUGGAGUUUAGCAUG", "polymerase ribozyme fitness (log ratio)": "≤ -4.2"},
      {"variant": "GGCUCUUCUCGAUCUAACAAAAAAGACAAAUCUGCCACAAAGCUUGAGCGCAUCUUCGGAUGCAAAGGCGGCAGCCUUCGGUGGCGCGAUAGCGCGAACGUUCUCAACUAUGACACGCAAAACGCGUGCUCCGUUGAAUGGAGUUUAUCAUG", "polymerase ribozyme fitness (log ratio)": "≤ -4.2"},
      {"variant": "GGCUCUUCUCGAUCUAACAAAAAAGACAAAUCUGCCACAAAGCUUGAGCGCAUCUUCGGAUGCAGAGGCGGCAGCCGUCGGUGGCGCGAUAGCGCCAAUGUUCUCAAUUAUGACACGCAAAACCCGUGCUCCGUUGAAUGGAGUUUAUCAUG", "polymerase ribozyme fitness (log ratio)": "≤ -4.2"},
      {"variant": "GGCUGUUCUCGAUUUAACAUAAAAGACAAAUCUGCAACAAAGCUUGAGAGCAUAUUCGGAUGCAGAGGCGGCAGCCUUCGGUGGGGCUAUAGCGCCAGCGUUCUCAACUAUGACACGCAAAACGCGUGCUCCGUUGAAUGGAGUUUAUCAUG", "polymerase ribozyme fitness (log ratio)": "≤ -4.2"},
      {"variant": "GGCUGUUCUCGAUCUAACAAAAAAGACAAAUCUGCCAGAGAGCUUGAGGGCAUCUUCGGUUGCAGAGGCGGCAGCCUUCGGUGGCGCGAUAGAGCCAACGUUCUCAACUAUGACACGCAAGACGCGUGCUCCGUUGAAUGGAGUUUAUCAUG", "polymerase ribozyme fitness (log ratio)": "≤ -4.2"},
      {"variant": "GGCUCUUGUCCAUCUAACAAAAAAGACAAAUCUGCCACAAAGUUUGAGAGCAUCUUCGGAUGCAGAAGCGGCAGCCUUCGGUGGCGCGAUAGCGCGAACGUCCUCAACUAUGACACGCAAAACGCGUGCUCCGUUGAAUGGAGUUUAUCAUG", "polymerase ribozyme fitness (log ratio)": "≤ -4.2"},
      {"variant": "GGCUCUUCUAUAUCUAACAAAAAAGACAAAUCUGCCACAAAGCUUGAGAGCAUCAUCGGAUGCAGAGGCGGCAGCCUUCGCUGGUGCGAUAGCGCCAACGUUCUCAACUAUGACACGCAAAACGCGUACUCCGUUGAAUGGAGUUUAUCAUG", "polymerase ribozyme fitness (log ratio)": "≤ -4.2"}
    ]}
  ]
}
